# Data reported in the supplement of paper PMC11417369.
# ± gives the standard deviation of the averaged measurements. The list shows a part of the results.
# Test system: PfAP2-I AP2 domain 3 (GST-tagged)
# Experiment: gcPBM binding intensity (ln(normalized median fluorescence intensity)); higher = stronger DNA binding
# Method in brief: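 GST-fused DNA-binding domains of P. falciparum, expressed in E. coli, were applied at about 25 μg on average for 1 h to an Agilent 4 × 180k array of primer-extended double-stranded 36-bp intergenic genomic probes and negative controls. Binding intensity is the highest Masliner-normalised natural-log median intensity across replicate spots of either probe orientation, measured with Alexa488 anti-GST antibody and a 488 nm scan.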
row,Sequence,gcPBM binding intensity (ln)
1,AAAAAATAAATAAATACACACAAATATATATATATA [CACACA_site2543],9.24 ± 0.25
2,TAATATGTATATAAAAGTACAGACGATTATAATTAT [XGTACX_site173],7.91 ± 0.33
3,TGGTAATCCACATACACACACACATACACATATATA [CACACA_site2727],8.24 ± 0.38
4,AAGAAAAAAAAAATTACACACTGCGCAGATACACAA [CACACA_site1289],8.04 ± 0.5
5,CTTATATATTGCCCTTCACACACACCCATATATATA [CACACA_site8795],9.07 ± 0.35
6,AAGTATGGAAAGGAATATAAATTAATACTTTCATTG [XGTACX_negctrl_site131],7.44 ± 0.73
7,TACAAAAAGAATGAAAAATATATAATAAAAATAAAA [XGTACX_negctrl_site159],7.61 ± 0.54
8,AAGACAACATAAATATGTACATATATTTATTATTTT [XGTACX_site1792],7.61 ± 0.35
9,CACATACCTATATACACACACAAAATAATAAAATAA [CACACA_site7150],7.93 ± 0.15
10,TATATATATATATTGACACACATGTATTTCAATATT [CACACA_site2832],9.27 ± 0.27
11,AGAATGGATTAGCTAGCACACACAAAAAAAAAAAAA [CACACA_site8995],7.97 ± 0.67
12,ACTAATATTTTATAAAGTACAAATTAATAAAATTCA [XGTACX_site5817],7.58 ± 0.12
13,GTCTAAAAATAAAAAGTGCATTTGTTTAATATTTTG,10.3 ± 0.14
14,ATTAAAACAAATATGTGTACATAAAAATATATATAT [XGTACX_site8394],8.69 ± 0.33
15,TATTATTATTATTATTTTAAAAGAAATAAAAATATG [XGTACX_negctrl_site119],8.03 ± 0.82
16,TGATTGTATTAAAATGCACACATATCAAGAGGAATT [CACACA_site7985],8.955 ± 0.007
17,TTAATTTTTTTTTTTTGTACTCATATGTAATTCATC [XGTACX_site3071],7.88 ± 0.27
18,TCGATTAAAACACAAAAATATAAATACATTGATAAA [TGCATGCA_negctrl_site523],7.4 ± 0.52
19,TTAATAAATATGTTTACACACGAAAATACATTTTTT [CACACA_site8245],7.71 ± 0.48

row,Sequence,gcPBM binding intensity (ln)
1,TTAAAAGTTATGGATACACACATATAAATATAGATT [CACACA_site7175],7.57 ± 0.42
2,ATTTTAATTTTTTAAGTATTATATGAATATTTATTA [TGCATGCA_negctrl_site142],7.26 ± 0.38
3,CACACGCACGAACACACACACACACGCGCACATATA [CACACA_site6304],8.57 ± 0.43
4,TAATTTTCATAATTTTGTACTTAACGTTTTACCTTG [XGTACX_site8048],7.57 ± 0.73
5,ACATATATATATATATATATATATATATATTCTTAA [CACACA_negctrl_site930],8.52 ± 0.27
6,TTACTTTAACCTTCTCGTACTTATTTACTTTATTCT [XGTACX_site7801],8 ± 0.73
7,TTTTATTATTCTTCTCTCTTATATATATATATATAT [CACACA_negctrl_site646],9.2 ± 0.79
8,TTTCAAAGGAAATGGTGTACACAATTTTTCCTTTTT [XGTACX_site2340],7.66 ± 0.41
9,ACTGTGGTATAAAGTTGTACATGTTTTTATATATTT [XGTACX_site5257],8.09 ± 0.49
10,TACTTTTATATGAATACACACAGGAATATATATATG [CACACA_site3568],7.75 ± 0.48
11,ATAACATAGGCAATCACACATATCATTAAGGTGTCA [CACACA_site5233],7.53 ± 0.59
12,GTGCATAAATCATACACACACACATATATAAATATA [CACACA_site7188],10.5 ± 0.65
13,AAAGTTTTTATAAAAAAAAAAATAAATACCATATAT [XGTACX_negctrl_site113],7.87 ± 0.64
14,GTGTTTTTATGTGAATGTACATATTTACTATCACAC [XGTACX_site2388],8.44 ± 0.33
15,AAAAGTTTAAGTTTTCGAAAATTTACCAAAAAAAAA [CACACA_negctrl_site1644],7.67 ± 0.74
16,TAGAATTAAGTTATTGCACACAGGAAAAGTTTCATA [CACACA_site1634],10.4 ± 0.4
17,AATCCTTACGAACACACACACACGAATAAATAAAAA [CACACA_site6363],8.19 ± 0.42
18,TCTTCGAAACTATCACTCTCACAATTCATTTATTTT [TGCATGCA_negctrl_site156],7.59 ± 0.63
19,ATAAATAAGAAAAATTGTACAATATTTTTTAGGATA [XGTACX_site3163],7.75 ± 0.17

row,Sequence,gcPBM binding intensity (ln)
1,ATATATATATATATATCATTTATTTAAAAATTTTTT [TGCATGCA_negctrl_site228],9.43 ± 0.17
2,CTCATTTTTGTACAGGTGCACTTATCGTTACACTAT,10.7 ± 0.3
3,AACACATAAAAAAGGTGTACCATAAAATATACATAC [XGTACX_site4478],7.97 ± 0.6
4,CTGTGTTTTGGTTGTACACACGCTACATTATATATT [CACACA_site5487],8.835 ± 0.021
5,ATATACATTAAATGAACACACATAAATAAATTACAT [CACACA_site2852],7.8 ± 0.47
6,TTTTAATTTTGTTGTTGTACAAATAACATGTGAGGG [XGTACX_site4401],8.59 ± 0.15
7,TATTTTATCATTTTTTTTATGTCTTTATTTCACTTG [CACACA_negctrl_site1398],7.61 ± 0.8
8,ATATACACATTAATAACACACAATATGATAACAAAT [CACACA_site7670],7.96 ± 0.38
9,ATATGAGTATAAAAATGTACGGAGCAACTAAATATA [XGTACX_site620],7.96 ± 0.67
10,TATAAATATGTATATGCATGTGGAATATATAATTAA [TGCATGCA_site226],8.26 ± 0.52
11,AAATAAAACAGACACACACACACATACACAAAAAAA [CACACA_site7753],7.97 ± 0.32
12,TGTCACCTATTTTTTTGTACGTATGTCCATTTTTTT [XGTACX_site4368],8.1 ± 0.64
13,ATTACAACCACATTGACATGCAAATGTAGAGGGGGA [TGCATGCA_site694],8.92 ± 0.16
14,TTTATGTAATATACATGTACAGAATATAAAATATAT [XGTACX_site6906],7.87 ± 0.59
15,TTAACTTCTTTAAAATGTACATATATTAAATAATAA [XGTACX_site3391],7.74 ± 0.28
16,AAAAAATATAGATGCACACACAAAAAAACAAATTAA [CACACA_site6718],8.71 ± 0.13
17,GTATTATTATTTTATGCATGTACATTGAATTATATT [TGCATGCA_site34],8.26 ± 0.44
18,ATATATATATATCAGAGTACATTCTTTAAAATATAT [XGTACX_site5915],9.43 ± 0.11
